The results in this text go back to PubChem BioAssay AID488969 (Vanderbilt High Throughput Screening Facility, 2010).

Structures are written as SMILES. Whole data set: some 110,000 compounds, median “z-score” near -0.1, cut for the highest 2% near 2. The list shows a part of the results.

The assay addresses Metabotropic glutamate receptor 8 (Rattus norvegicus) (UniProt P70579). In words: rat mGluR8 modulators via GIRK flux, primary screen, cell-based, thallium flux, HTS (AID 488969). As to conditions: HEK293 rat mGluR8, GIRK (G protein-gated inwardly rectifying potassium channel) thallium flux, FluoZin2; at 10 µM; stronger effect = higher value; submaximal glutamate (EC20) added with thallium.
Sequence of UniProt P70579 (P70579 whole entry, looked up): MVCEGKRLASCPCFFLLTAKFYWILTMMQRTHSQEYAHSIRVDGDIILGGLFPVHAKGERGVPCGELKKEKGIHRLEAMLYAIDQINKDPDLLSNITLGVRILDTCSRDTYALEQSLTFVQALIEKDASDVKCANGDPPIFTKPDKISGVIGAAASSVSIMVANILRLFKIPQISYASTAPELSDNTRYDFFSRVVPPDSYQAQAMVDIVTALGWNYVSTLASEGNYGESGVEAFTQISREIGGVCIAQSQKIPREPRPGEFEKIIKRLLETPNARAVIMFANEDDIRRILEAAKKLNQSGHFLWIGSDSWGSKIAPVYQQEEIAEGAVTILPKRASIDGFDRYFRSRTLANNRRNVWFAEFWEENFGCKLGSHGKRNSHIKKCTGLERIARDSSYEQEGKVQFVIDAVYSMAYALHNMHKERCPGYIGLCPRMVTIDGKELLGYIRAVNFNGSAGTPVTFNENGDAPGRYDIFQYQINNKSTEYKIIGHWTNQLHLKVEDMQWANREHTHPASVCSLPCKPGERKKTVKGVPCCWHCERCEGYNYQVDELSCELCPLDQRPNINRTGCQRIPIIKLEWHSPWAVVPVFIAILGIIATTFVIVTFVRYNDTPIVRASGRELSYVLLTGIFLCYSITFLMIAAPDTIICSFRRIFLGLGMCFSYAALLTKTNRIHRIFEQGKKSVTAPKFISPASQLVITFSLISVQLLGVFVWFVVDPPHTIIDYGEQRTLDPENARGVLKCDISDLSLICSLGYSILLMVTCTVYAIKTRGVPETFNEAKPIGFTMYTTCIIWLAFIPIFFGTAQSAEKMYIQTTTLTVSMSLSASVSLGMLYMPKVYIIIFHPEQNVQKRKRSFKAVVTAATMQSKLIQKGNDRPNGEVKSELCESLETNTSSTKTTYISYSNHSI
For the molecule `Cc1noc(C)c1CSc1cc(C)c2ccccc2n1`, the z-score turned out to be 0.409.

In turn, `O=C1/C(=C/c2cccs2)Sc2ccccc21` gave a z-score of -0.152.

In the case of `O=C(c1ccco1)N1CCN(S(=O)(=O)c2ccc(Cl)s2)CC1`, the z-score was -0.0642.

`CC(CN1CCOCC1)OC(=O)c1cccs1` (stereo not given) returned a z-score of -0.0471.

`O=C(CCn1c(=O)[nH]c2ccsc2c1=O)N1CC(=O)N(CCc2ccccc2)C(=O)C1` gave a z-score of 0.092.

The molecule `COc1cccc(-c2cc(C(=O)Nc3cc(OC)c(OC)c(OC)c3)no2)c1` yielded a z-score of -0.916.

Turning to `NS(=O)(=O)c1ccc(NC(=O)CCc2ccccc2)cc1`, the z-score is -0.0142.

`COc1cc(CC(=O)NCCc2ccc(OCc3ccccc3)cc2)c([N+](=O)[O-])cc1OC` displayed a z-score of 0.251.

Take `CCOc1cc(C)c(C(C)C)cc1S(=O)(=O)N1CCN(C)CC1`: the z-score is -0.365.

Regarding `O=C(CN(c1cccc([N+](=O)[O-])c1)S(=O)(=O)c1ccccc1)NCc1ccccc1`, the z-score is 0.014.

The molecule `O=c1[nH]c2ccccc2n1C1CCCCC1` had a z-score of -1.04.

With `O=C(O)C(Cc1cc2ccccc2[nH]1)N1C(=O)C2CC=C(Cl)CC2C1=O` (stereo not given), the z-score was -0.308.

Consider `Cc1ccc(NC(=O)/C(=C\c2ccccc2)NC(=O)/C=C/c2ccccc2)cc1`, for which the z-score is -0.26.

`CC1(C)CC(=O)C2=C(C1)N(Cc1cccnc1)C(=O)C2(NC(=O)C1CC1)C(F)(F)F` (stereo not given) returned a z-score of -0.22.

On to `CCOc1ccc(Cn2nnc(C(=O)NCCc3ccccc3)c2N)cc1`, for which the z-score is -0.743.

In turn, `Cc1cccc(NC(=S)N(C)C2(c3ccccc3Cl)CCCCC2=O)c1` (stereo not given) returned a z-score of 0.385.

With `C=CCNC1=C(Cl)C(=O)N(c2cccc(Cl)c2Cl)C1=O`, the z-score was 0.07.

Turning to `CC(=O)c1cccc(NS(=O)(=O)c2ccc3c(c2)oc(=O)n3C)c1`, the z-score was -0.193.

As to `CCCc1nc(N)sc1C(=O)OCC`, the z-score was -0.131.

For `Cc1ccc(S(=O)(=O)N2CC(O)CC2C(=O)OCC(=O)c2ccccc2Cl)cc1C` (stereo not given), the z-score worked out at 0.535.

Take `CCOc1ccc(C(C)=O)cc1CN1C(=O)NC2(CCCCC2C)C1=O` (stereo not given): the z-score was found to be 0.381.

Take `C/C(=N\NC(=O)c1ccccc1)c1ccccc1Br`: the z-score is 0.339.

`Cc1ccccc1C(=O)NC1CCN(Cc2nnnn2C2CCCC2)CC1` returned a z-score of -0.788.

`CCNC(=O)NC(=O)COC(=O)c1cccc(NS(=O)(=O)/C=C/c2ccccc2)c1` displayed a z-score of -0.142.

Turning to `COc1ccc(-c2cc3ccccc3oc2=O)cc1NC(=O)c1ccc(Br)o1`, the z-score was -0.49.

The molecule `Cc1ccc(NC(=S)N(Cc2cccs2)Cc2cc3cc(C)cc(C)c3[nH]c2=O)cc1` came in with a z-score of -0.317.

`Cc1ccccc1-n1ncc2c([N+](=O)[O-])cc([N+](=O)[O-])cc21` had a z-score of 0.0442.

Molecule `Cc1c(Cl)cccc1N=c1c([N+](=O)[O-])nn(-c2ccccc2)n1O` showed a z-score of 0.329.

`CC(C)NC(=O)CSc1nc2ccccc2c(=O)n1CCCOC(C)C` registered a z-score of 0.488.

Molecule `CCOc1cc(CN2CCOCC2)cc(C(C)=O)c1` returned a z-score of 0.314.

`O=C(O)CC1=C(O)C(=O)N(c2ccccc2)C1c1ccc(Cl)cc1` (stereo not given): the z-score was -0.135.

In turn, `O=C1N/C(=C/c2ccc(Br)cc2)C(O)=C1C=NCc1ccccc1` registered a z-score of -0.0497.

In turn, `O=C(CSc1ncn[nH]1)Nc1ccc2c(c1)OCCO2` registered a z-score of 0.155.

The molecule `O=S(=O)(NCC(c1cccnc1)N1CCOCC1)c1cccs1` (stereo not given) had a z-score of 0.0742.

Take `CCOc1ccc(N2C(=O)/C(=C/c3cccs3)N(CC(=O)OC)C2=S)cc1`: the z-score is -0.17.

`COc1ccc(CN2CCCCC2C(=O)Nc2ccc(OC)c(OCC(C)C)c2)cc1OC` (stereo not given) displayed a z-score of -0.0415.

`O=C(Cn1cnc2ccccc21)Nc1ccc(C(=O)O)cc1` returned a z-score of -0.114.

On to `Cc1ccsc1C1C(C(=O)O)c2ccccc2C(=O)N1C` (stereo not given), for which the z-score was -0.418.

In turn, `CN(CC(=O)N1CCN(c2ccc(F)cc2)CC1)S(=O)(=O)c1ccc(F)cc1` returned a z-score of -0.445.

In turn, `Cc1ccc(NC(=O)c2nn(C34CC5CC(CC(C5)C3)C4)cc2[N+](=O)[O-])cc1` came in with a z-score of -0.104.

As to `Cn1c(=O)c2c(nc(SCc3nn[nH]n3)n2Cc2ccccc2F)n(C)c1=O`, the z-score was found to be 0.363.

The molecule `CCCc1nnc(SCc2ccc(OC)cc2)n1N` showed a z-score of -0.405.

As for `C/C(Cl)=C/Cc1c(C)[nH]c2ccc(C)cc2c1=O`, the z-score is -0.0588.

The molecule `CSc1nc(N(C)C)nc(N2CC(=O)N(CCNS(=O)(=O)c3ccc(C)cc3)C2=N)n1` showed a z-score of -0.172.

For the molecule `COC(=O)c1ccc(/C=N\NC(=O)c2ccc(C)cc2Cl)cc1`, the z-score is -0.0684.

Molecule `O=C(CNC(=O)c1cnccn1)Nc1ccc(F)c(F)c1F` registered a z-score of -0.21.

For `COc1cccc(CN(C)CC(=O)NC(=O)NCc2ccccc2)c1`, the z-score worked out at 0.16.

In turn, `CCOC(=O)C1=C(Nc2ccccc2)CC(C)(O)C(C(=O)OCC)C1c1ccc(Br)cc1` (stereo not given) yielded a z-score of -0.457.

Molecule `COc1cc(C)c(Br)cc1S(=O)(=O)NCc1ccccc1` returned a z-score of -0.159.

As for `CC(=O)c1sc2nc(C)cc(C)c2c1N`, the z-score came to 0.0834.

Molecule `O=C(Nc1ccccc1Cl)c1ccccc1Cl` displayed a z-score of -0.159.

On to `CCN1CCN(Cc2ccc(NC(=O)Nc3ccc(SC)cc3)cc2)CC1`, for which the z-score was 0.0492.

For `COc1cccc(-c2nnc(SCC(=O)N3CCCc4ccccc43)o2)c1`, the z-score is -0.911.

As to `COC(=O)c1ccccc1NC(=O)c1sc(N)nc1C`, the z-score was -0.519.

With `O=C(Cc1ccccc1)Nc1cc(C(=O)c2ccccc2)ccc1N1CCOCC1`, the z-score is -0.465.

`CCOC(=O)C(NC(=O)c1ccccc1)(OCc1ccc(F)cc1)C(F)(F)F` (stereo not given) had a z-score of 0.14.

Molecule `Cc1cc([N+](=O)[O-])cc(C)c1OCC(=O)N/N=C/c1ccc(OC(=O)c2ccccc2Br)cc1` showed a z-score of 2.41.

Molecule `COCCCN(C(C)=O)c1nc(-c2ccc(OC)cc2)cs1` came in with a z-score of -0.575.

The molecule `CCCC1CC(C)(C(=O)Cn2[nH]c(=O)ccc2=O)OC1=O` (stereo not given) had a z-score of -0.0181.

Regarding `COCCN1CN=C(Nc2nc3ccccc3o2)NC1`, the z-score is -0.0231.

`Nc1ccc(Oc2ccc(Cl)cc2)cc1` came in with a z-score of 0.354.

As for `CCOC(=O)C1=C(C)N=C2SC(C)C(=O)N2C1c1ccc(OCC)c(OCC)c1` (stereo not given), the z-score was determined as 0.125.

The molecule `COc1ccc(-c2ccc(-c3nnn(CC(C)=O)n3)cc2)cc1` gave a z-score of 0.259.

The molecule `Cc1nc2sccc2c(=O)n1-c1cccc(Cl)c1` registered a z-score of -0.144.

Turning to `CC1CCCC(C)N1C(=O)Cn1cc(/C=C2/C(=O)Nc3ccccc32)c2ccccc21` (stereo not given), the z-score was 1.09.

In turn, `CN1CCN(C(=O)c2ccc(N(Cc3ccccc3Cl)S(C)(=O)=O)cc2)CC1` had a z-score of 0.393.

In turn, `Cc1nn(C(=O)N2CCCCC2)c(C)c1CN1C(=O)c2ccccc2C1=O` gave a z-score of -0.052.

Molecule `C/C(N)=C(/C#N)C(=O)COC(=O)c1cc(-c2cccc3ccccc23)nc2ccccc12` came in with a z-score of -0.0818.

Turning to `CC1CCCN(C/C(O)=C(\C#N)c2nc3ccccc3[nH]2)C1` (stereo not given), the z-score is 0.32.

Molecule `OCC#CCSc1nnc(-c2ccc(Br)cc2)o1` yielded a z-score of -0.144.
